Assay results: paper PMC7604603
These are yes or no findings as the source states them, for the method shown. Binding seen in cells or lysates may run through a third protein. Some binding calls cover weakened binding; strength is not graded here. For some of these results: Where a sequence is shown, tags or fusion partners need not be part of it.

The chains behind the UniProt entries cited, without tags or fusion partners.
UniProt Q12824: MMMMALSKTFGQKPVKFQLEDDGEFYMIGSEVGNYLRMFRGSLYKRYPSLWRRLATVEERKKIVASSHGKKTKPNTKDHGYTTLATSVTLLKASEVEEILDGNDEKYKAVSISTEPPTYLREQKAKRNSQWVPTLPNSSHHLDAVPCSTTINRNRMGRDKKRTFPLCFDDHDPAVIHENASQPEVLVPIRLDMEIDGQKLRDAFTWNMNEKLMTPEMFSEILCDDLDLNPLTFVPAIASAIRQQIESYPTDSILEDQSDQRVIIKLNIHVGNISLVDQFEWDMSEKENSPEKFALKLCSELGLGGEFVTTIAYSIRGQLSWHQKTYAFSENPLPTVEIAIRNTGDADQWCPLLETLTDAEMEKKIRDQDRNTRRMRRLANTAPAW

Key:
[1] = target: T1, NR4A3-AF1 (1-124 amino acids) fused with a flag tag in the N-terminal (UniProt Q92570); assay: co-IP; flag-tagged NR4A3-C, full-length or truncated NR4A3 coexpressed with HA-SMARCB1 in HEK-293T cells; antiflag IP, western blot; beads washed 5 times with IP lysis buffer containing 300 mM NaCl
T1 sequence: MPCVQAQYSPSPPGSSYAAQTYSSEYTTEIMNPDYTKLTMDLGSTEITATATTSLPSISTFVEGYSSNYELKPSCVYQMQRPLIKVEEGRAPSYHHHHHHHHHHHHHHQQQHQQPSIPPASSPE

[2] = target: NR4A3-C (C-terminal 308 amino acids of NR4A3) fused with a flag tag in the N-terminal (UniProt Q92570); assay: as above
[3] = target: NR4A3-FL (1-627 amino acids) fused with a flag tag in the N-terminal (UniProt Q92570); assay: as above
[4] = target: NR4A3-ΔAF2 (1-610 amino acids) fused with a flag tag in the N-terminal (UniProt Q92570); assay: as above
[5] = target: T2, NR4A3-ΔDBD (1-292 amino acids) fused with a flag tag in the N-terminal (UniProt Q92570); assay: as above
T2 sequence: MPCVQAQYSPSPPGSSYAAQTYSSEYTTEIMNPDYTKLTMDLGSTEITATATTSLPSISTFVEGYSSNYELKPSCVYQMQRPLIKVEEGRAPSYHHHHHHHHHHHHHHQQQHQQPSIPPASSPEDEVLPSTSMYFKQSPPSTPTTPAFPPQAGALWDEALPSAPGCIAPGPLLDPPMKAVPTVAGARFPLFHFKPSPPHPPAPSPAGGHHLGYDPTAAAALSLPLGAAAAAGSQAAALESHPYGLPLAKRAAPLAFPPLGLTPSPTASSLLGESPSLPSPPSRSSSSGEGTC

[6] = target: NR4A3-ΔLBD (1-379 amino acids) fused with a flag tag in the N-terminal (UniProt Q92570); assay: as above
[7] = target: SMARCB1, endogenous in HUVEC (human (endogenous in HUVEC)) (UniProt Q12824); assay: co-IP; endogenous proteins; anti-SMARCB1 IP, western blot; HUVEC or RAOEC after 4-hour OGD and 1-hour reoxygenation, with or without 500 μM H2O2; isotype IgG as negative control

Row | binding [1] | binding [2] | binding [3] | binding [4] | binding [5] | binding [6] | binding [7] | Substance
1 | no binding | binds | binds | binds | no binding | binds | – | SMARCB1 fused with an HA tag in the N-terminal (full-length cDNA) (from UniProt Q12824 1-385)
2 | – | – | – | – | – | – | binds | NR4A3, endogenous in HUVEC (from UniProt Q92570 1-626)
